B1: L104EA29L (Fc fusion)
chain: MHVAQPAVVLASSRGIASFVCEYASPGKLTEVRVTVLRQADSQVTEVCAATYMMGNELTFLDDSICTGTSSGNQVNLTIQGLRAMDTGLYICKVELMYPPPYYEGIGNGTQIYVIDPEPCPDSDQ[… human IgG1 Fc …]
notes: extracellular domain;domain: hinge, CH2 and CH3 regions of IgC1; Mutant CTLA4Ig tested unpurified in COS cell culture medium
B2: L104EA29T (Fc fusion)
chain: MHVAQPAVVLASSRGIASFVCEYASPGKTTEVRVTVLRQADSQVTEVCAATYMMGNELTFLDDSICTGTSSGNQVNLTIQGLRAMDTGLYICKVELMYPPPYYEGIGNGTQIYVIDPEPCPDSDQ[… human IgG1 Fc …]
notes: as for B1
B3: L104EA29W (Fc fusion)
chain: MHVAQPAVVLASSRGIASFVCEYASPGKWTEVRVTVLRQADSQVTEVCAATYMMGNELTFLDDSICTGTSSGNQVNLTIQGLRAMDTGLYICKVELMYPPPYYEGIGNGTQIYVIDPEPCPDSDQ[… human IgG1 Fc …]
notes: as for B1

What follows are binders tested against T1, CD86Ig (UniProt P42081 24-247) (assay: SPR screening of COS culture media over immobilized CD86Ig).
T1 construct: Immobilized on the BIAcore chip; also called soluble CD86Ig
T1 sequence (looked up): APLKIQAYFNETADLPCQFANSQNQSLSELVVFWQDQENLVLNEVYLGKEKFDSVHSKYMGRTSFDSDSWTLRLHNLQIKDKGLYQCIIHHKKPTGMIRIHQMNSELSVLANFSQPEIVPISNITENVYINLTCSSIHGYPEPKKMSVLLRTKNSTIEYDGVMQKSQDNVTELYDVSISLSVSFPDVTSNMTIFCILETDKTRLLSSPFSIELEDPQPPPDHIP
Experimental: COS cells were transfected with individual miniprep purified plasmid DNA and propagated for several days. […] All experiments were run on BIAcore™ or BIAcore™ 2000 biosensors at 25° C.

Fold slower “off” rate than wild type CTLA4Ig, ~4 fold:
B1
B2
B3
